From patent US20230227576A1 (published 2023) come the findings set out here.

Experiment [1] has as its target carcinoembryonic antigen (CEA) (Homo sapiens (Human), UniProt P06731). Put plainly: cell-based or functional assay.
Experiment [2] concerns the target Human folate receptor alpha (FolR) (human, UniProt P15328). Kind of experiment: cell-based or functional assay.

B1: MFE23.CD28.CD40 CoStAR (CTP194; OSM_MFE23_spCD28_CD28_CD40) (CAR)
chain: QVKLQQSGAELVRSGTSVKLSCTASGFNIKDSYMHWLRQGPEQGLEWIGWIDPENGDTEYAPKFQGKATFTTDTSSNTAYLQLSSLTSEDTAVYYCNEGTPTGPYYFDYWGQGTTVTVSSGGGGSGGGGSGGGGSENVLTQSPAIMSASPGEKVTITCSASSSVSYMHWFQQKPGTSPKLWIYSTSNLASGVPARFSGSGSGTSYSLTISRMEAEDAATYYCQQRSSYPLTFGAGTKLELKRAAAGSGG[about 150 residues not shown]FWVLVVVGGVLACYSLLVTVAFIIFWVRSKRSRLLHSDYMNMTPRRPGPTRKHYQPYAPPRDFAAYRSKKVAKKPTNKAPHPKQEPQEINFPDDLPGSNTAAPVQETLHGCQPVTQEDGKESRISVQERQ
As to B1, in experiment [1], the “IL-2 secretion (ELISA)” value worked out at 29 ng/mL, the “fold expansion over 2 rounds of stimulation” value is 10 fold and the “viable T-cell counts over 18 days” value is more than 60 fold.

B2: MOV19.CD28.CD40 CoStAR (CTP205; OSM_MOV19_spCD28_CD28_CD40) (CAR)
chain: QVQLQQSGAELVKPGASVKISCKASGYSFTGYFMNWVKQSHGKSLEWIGRIHPYDGDTFYNQNFKDKATLTVDKSSNTAHMELLSLTSEDFAVYYCTRYDGSRAMDYWGQGTTVTVSSGGGGSGGGGSGGGGSDIELTQSPASLAVSLGQRAIISCKASQSVSFAGTSLMHWYHQKPGQQPKLLIYRASNLEAGVPTRFSGSGSKTDFTLNIHPVEEEDAATYYCQQSREYPYTFGGGTKLEIKAAAGSGG[about 150 residues not shown]FWVLVVVGGVLACYSLLVTVAFIIFWVRSKRSRLLHSDYMNMTPRRPGPTRKHYQPYAPPRDFAAYRSKKVAKKPTNKAPHPKQEPQEINFPDDLPGSNTAAPVQETLHGCQPVTQEDGKESRISVQERQ
Turning to B2, the “mean fold expansion over 21 days” value in experiment [2] is 1300 fold.

B3: MFE23.CD28 CoStAR (MFE23.scFv fused to full length human CD28) (CAR)
chain: QVKLQQSGAELVRSGTSVKLSCTASGFNIKDSYMHWLRQGPEQGLEWIGWIDPENGDTEYAPKFQGKATFTTDTSSNTAYLQLSSLTSEDTAVYYCNEGTPTGPYYFDYWGQGTTVTVSSGGGGSGGGGSGGGGSENVLTQSPAIMSASPGEKVTITCSASSSVSYMHWFQQKPGTSPKLWIYSTSNLASGVPARFSGSGSGTSYSLTISRMEAEDAATYYCQQRSSYPLTFGAGTKLELKR[about 150 residues not shown]FWVLVVVGGVLACYSLLVTVAFIIFWVRSKRSRLLHSDYMNMTPRRPGPTRKHYQPYAPPRDFAAYRS
B3: the “IL-2 secretion (ELISA)” value in experiment [1] was 5 ng/mL.

B4: MOV19.CD28 CoStAR (CTP343) (CAR)
chain: QVQLQQSGAELVKPGASVKISCKASGYSFTGYFMNWVKQSHGKSLEWIGRIHPYDGDTFYNQNFKDKATLTVDKSSNTAHMELLSLTSEDFAVYYCTRYDGSRAMDYWGQGTTVTVSSGGGGSGGGGSGGGGSDIELTQSPASLAVSLGQRAIISCKASQSVSFAGTSLMHWYHQKPGQQPKLLIYRASNLEAGVPTRFSGSGSKTDFTLNIHPVEEEDAATYYCQQSREYPYTFGGGTKLEIKAAAGSGG[about 150 residues not shown]FWVLVVVGGVLACYSLLVTVAFIIFWVRSKRSRLLHSDYMNMTPRRPGPTRKHYQPYAPPRDFAAYRS
As for B4, the “mean fold expansion over 21 days” value in experiment [2] came to 187 fold.
